Whole data set: some 5,400 compounds, median “IFI” near 2, cut for the highest 2% near 22. The list shows a part of the results.
Assay: NOVARTIS: Inhibition Frequency Index (IFI) - the number of HTS assays where a compound showed > 50% inhibition/induction, expressed as a percentage of the number of assays in which the compound was tested.
Assay type: functional

| Structure (SMILES) | IFI [%] |
| --- | --- |
| CCOC(=O)c1c(NC(=O)CSc2nnc(CNC(=O)c3ccc(C)c(C)c3)n2C2CCCCC2)sc2c1CCC2 | 2.41 |
| Cn1c(=O)c2c(ncn2CC(O)CN2CCCC2)n(C)c1=O (stereo not given) | 4.27 |
| CC(C)CCn1c(NCc2ccccc2)nc2c1c(=O)n(CC(N)=O)c(=O)n2C | 0 |
| O=C(Nc1ccccc1)C1Cc2ccccc2CN1S(=O)(=O)c1ccc(F)cc1 (stereo not given) | 1.15 |
| CCOC(=O)c1cnc2c(C)c3[nH]c(C)c(C)c3cc2c1O | 0 |
| COc1ccc(C2CC(=O)C3=C(C2)NC(C)=C(C(=O)OC2CCCC2)C3c2ccc(F)cc2)cc1OC (stereo not given) | 8.43 |
| Cc1cc(C)cc(NC(=O)CCCn2c3ccccc3c(=O)c3cc(C)ccc32)c1 | 0 |
| COc1cccc(C=NNC(=O)CSc2ccccc2C)c1O | 0 |
| CCOC(=O)c1cn(CC)c2cc(N3CCCCC3)c(F)cc2c1=O | 6.56 |
| CCOC(=O)NN=C(C)c1ccc(C(C)=NNC(=O)OCC)cc1 | 2.17 |
| COc1ccccc1NC(=O)CSc1nc2cccnc2n1-c1ccccc1OC | 7.69 |
| CC(C)Cc1ccc(-c2csc(NC(=O)C3C4CCC(C4)C3C(=O)O)n2)cc1 (stereo not given) | 4.65 |
| COc1cncc(-c2cncc(N3CCN(CCN(C)C)CC3)n2)c1 | 0 |
| CCC(=O)NNc1cc(N2CCCC2)nc(N2CCCC2)n1 | 4.44 |
| N=C(N)c1ccc(OCCCCCOc2ccc(C(=N)N)cc2)cc1 | 2.61 |
| Cc1cccc(-c2ccc(NC(=O)C3CCN(Cc4cnc(C)nc4)CC3)cc2)c1 | 0 |
| CCOc1ccc(CCNC(=O)Nc2ccc(F)cc2)cc1OCC | 0 |
| CCCCN1Cc2ccc(C(=O)NCCN3CCOCC3)cc2N=C1c1ccc(OC)cc1 | 1.22 |
| CC(=NNC(=S)NN)c1ccccn1 | 0 |
| CCN(CC)c1ccc(/C=C/C23NC(=O)CCN2c2ccc(C)cc2C3(C)C)cc1 (stereo not given) | 7.69 |
| O=C1[C@H]2Cc3c([nH]c4ccccc34)C(CCc3ccccc3)N2C(=O)CN1CCc1c[nH]c2ccccc12 (stereo not given in full) | 12.2 |
| COCC(=O)NC(c1ccccc1)c1cc(Cl)c2cccnc2c1O (stereo not given) | 7.69 |
| O=c1cc(C(F)(F)F)c2cc(Cl)c(O)cc2o1 | 3.6 |
| COc1ccc(-c2noc(CNC(=O)c3cccc(I)c3)n2)cc1 | 0 |
| Oc1c(C(Nc2ccccn2)c2ccc(Br)cc2)ccc2cccnc12 (stereo not given) | 11.3 |

| Structure (SMILES) | IFI [%] |
| --- | --- |
| Cc1ccc(NC(=O)c2nc[nH]c2C(=O)Nc2nc3ccccc3[nH]2)c(C)c1 | 4.69 |
| COC(=O)C1=C(C)N/C(=C\c2cc(C)n(-c3cc(C)ccc3C)c2C)C1=O | 0 |
| O=C(Nc1ccc2oc(-c3cccc4ccccc34)nc2c1)c1ccc([N+](=O)[O-])o1 | 7.14 |
| CN1CCN(Cc2c(O)ccc3c(=O)c(Oc4ccc(C(C)(C)C)cc4)c(C(F)(F)F)oc23)CC1 | 2.35 |
| COC(=O)C1=C(C)N/C(=C\c2cc(C)n(-c3ccccc3C(F)(F)F)c2C)C1=O | 0 |
| O=C(NCC1CCCO1)c1cc(S(=O)(=O)N2CCCCC2)c[nH]1 (stereo not given) | 2.38 |
| CC[n+]1c(C=C2C=C(C)OC(C)=C2)sc2ccccc21 | 12.7 |
| O=C(Nc1ccc(C(c2ccccc2)(c2ccccc2)c2ccc(NC(=O)c3cccc([N+](=O)[O-])c3)cc2)cc1)c1cccc([N+](=O)[O-])c1 | 0 |
| Cc1ccc(-c2nn3c(O)c4c(nc3c2C)CCCC4)cc1 | 10.9 |
| O=C(NNc1ccccc1F)C1CCC1 | 3.45 |
| COC(=O)c1ccc2c(=O)n(Cc3ccc4c(c3)OCO4)c(SCC(=O)n3nc(C)cc3N)nc2c1 | 0 |
| COc1ccc(OC)c(-c2ccc(O)c(CN3CCCCCC3)c2)c1 | 1.92 |
| CCCNC(=O)c1ccc(OC2CCN(CC(c3ccccc3)c3ccccc3)CC2)c(OC)c1 | 2.78 |
| O=C(NCc1ccccc1)c1cnc(NCCC(c2ccccc2)c2ccccc2)nc1NCC1CCCCC1 | 3.88 |
| Nc1ccc(-c2nc3cc(-c4ccc5[nH]c(-c6ccc(N)cc6)nc5c4)ccc3[nH]2)cc1 | 27.3 |
| CCOC(=O)c1cc(-c2ccccc2)n(CCC(=O)Nc2ccccc2N2CCN(C)CC2)c1C | 2.94 |
| CCC1CCCCN1C(=O)c1cc(-c2ccccc2OC)on1 (stereo not given) | 0 |
| CCCn1c(=N)c(C(=O)NC(C)c2ccccc2)cc2c(=O)n3cccc(C)c3nc21 (stereo not given) | 0 |
| O=C(Nc1ccc(-n2cnnn2)cc1)C1CCN(Cc2ccc(OC(F)F)cc2)CC1 | 0 |
| CCc1ccccc1NC(=O)C1c2ccccc2C(=O)N(CC(C)C)C1c1cccs1 (stereo not given) | 3.03 |
| COC(=O)C1CCN(C(=O)COC(c2ccccc2)c2cccnc2Cl)CC1 (stereo not given) | 1.94 |
| COc1ccccc1N1CCN(Cc2cc(C(C)C)c(C)cc2O)CC1 | 3.12 |
| CCOc1ccc2nc(C)cc(Nc3ccc(Br)cc3)c2c1 | 5.56 |
| OC(CN1CCOCC1)Cn1c2ccc(Br)cc2c2cc(Br)ccc21 (stereo not given) | 0 |
| CN1/C(=C\C=C\C2=[N+](C)c3ccc4ccccc4c3C2(C)C)C(C)(C)c2ccccc21 | 23.1 |
